# Reference: the RNAGym collection of RNA variant scans (doi:10.1073/pnas.2313332121)
# Variants at the background level are over-represented here.
# B1: TPR 5TU (parent)
# chain: GGAUCUUCUCGAUCUAACAAAAAAGACAAAUCUGCCACAAAGCUUGAGAGCAUCUUCGGAUGCAGAGGCGGCAGCCUUCGGUGGCGCGAUAGCGCCAACGUUCUCAACUAUGACACGCAAAACGCGUGCUCCGUUGAAUGGAGUUUAUCAUG
# Variants of: B1
# Assay: polymerase ribozyme fitness, log enrichment relative to wild type (log ratio); higher = more active; in vitro selection for triplet polymerase activity
# In short: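 For each subunit of a heterodimeric triplet polymerase ribozyme, a mutant library was built by PCR and transcribed, then taken through a single in vitro selection round in triplicate. Selection involved annealing to a biotinylated primer, the partner subunit and triplets, incubation frozen at −7 °C, gel excision of extended constructs, capture on streptavidin beads and RT-PCR. Genotypes were retained after Illumina sequencing of inputs and outputs only with ≥10 input reads and ≥1 read in each output. Fitness is defined as the logarithm of a genotype's enrichment relative to wild-type enrichment, using inverse-variance-weighted averages across replicates, with the logarithm taken to base 2.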
row,Variant,polymerase ribozyme fitness (log ratio)
1,C18U A37C C105G A106G C108U A115G,≤ -4.2
2,C18U U33G C93U C116G,≤ -4.2
3,A19G U53C A73U A91C,≤ -4.2
4,A19G A23G A24G A97G C131G,≤ -4.2
5,A19C U56A U104A A119U,-0.197
6,C18U G46C C54A G59C G86A U144C,≤ -4.2
7,C18U U53A A73U C79U C99G U104A,≤ -4.2
8,C18U A49C C72G C93U A107G,≤ -4.2
9,C18U A30G U44A G68U G86U C95G G143U,≤ -4.2
10,A19C C87A C99U U139C A150C,≤ -4.2
11,A19G A23G G50A U55A U56C A106U U109C,≤ -4.2
12,A19U A26U U90G C118U A120U G136U,≤ -4.2
13,A19G G84A,-1.52
14,A19C G74U C87A A98G C103G,≤ -4.2
15,A19G U55G A64C A122G A138C U144G,≤ -4.2
16,A19C C38A A49U G62A C76A G83U A98U,≤ -4.2
17,A19G C57A G94C C95A,≤ -4.2
18,A19C U53G C85U G92A C103A G141C,≤ -4.2
19,A19G C54U G92A C118A C149U,≤ -4.2
20,A19G A20U C36U C96G,-3.67
21,A19C G50U U61A G92A,≤ -4.2

row,Variant,polymerase ribozyme fitness (log ratio)
1,C18U A30U C32A C63U G83U C93A G143A,≤ -4.2
2,A19U A20C A73G G92U C116A,-0.142
3,A19G U31C A52C A60U G62A C103G,≤ -4.2
4,A19U C57U A64C C85U A91U C108G,≤ -4.2
5,A19C A49C,≤ -4.2
6,A19U C38U G50A C79A,≤ -4.2
7,A19G C51G A91U C93A C118G G136A,≤ -4.2
8,A19U C38A C95G A113U A142U,≤ -4.2
9,A19U C32A C35G A91C C93U,≤ -4.2
10,A19C A40C G84C A110C G112U A119C,≤ -4.2
11,C18U A40U U53G C75G C118A,≤ -4.2
12,A19U G68C C93G C131G,≤ -4.2
13,A19U A20C U55A A73C G84A C96A G143A U145G U146G C149G,≤ -4.2
14,A19G A41C G59A G62A A73U C118G A150U,≤ -4.2
15,C18U A37C C75U G88U C99U,≤ -4.2
16,C18U A30U A89U C93G C131A G140U U145A,≤ -4.2
17,A19C G126U U145A,-0.56
18,C18U A52C G81U C85U G86U A113U,≤ -4.2
19,A19C C57U C72U A73U G80A C95A,≤ -4.2
20,A19G C36A G67A C87U C95G U111C,≤ -4.2
21,A19U A23G G84A U101G A115C,-3.62

row,Variant,polymerase ribozyme fitness (log ratio)
1,A19U C87A,≤ -4.2
2,A19U C87U,-0.845
3,C18U A121U,-1.1
4,A19G C96U U101G,-0.801
5,A19U A47C C69A G83A C95G A115U U144G,≤ -4.2
6,A19G C96U C123U,-0.681
7,C18U A30G U44A G68U G86U C95G U101C C149U,≤ -4.2
8,A19C U45A A73G C79U C132U U139A G141C,≤ -4.2
9,A19G A28U A60C G83U,≤ -4.2
10,A19U A21U A41C C99U U111A G133C,≤ -4.2
11,C18U C36U G67C G84A A107U G133U G141C,≤ -4.2
12,A19C A30U C36A G48A U53G G86C G143C,≤ -4.2
13,A19U G62C G65C C96A,≤ -4.2
14,A19G A20C A24G C76A C79A U148A,≤ -4.2
15,C18U A52U U53A U90G C95A,≤ -4.2
16,A19U G25A C38G G67C C96U A107U C108A A110C A122C,≤ -4.2
17,A19U A28G C38A C85U C125U G126U G143U,≤ -4.2
18,A19U A49C C96U A98G U104G C131G,≤ -4.2
19,A19C C27U C54U G74C C87U U146C,≤ -4.2
20,A19C C36U C54G U55C C95G,≤ -4.2
21,A19G G74A G88A,≤ -4.2

row,Variant,polymerase ribozyme fitness (log ratio)
1,A19U G46A C51U A91G G124U U139A,≤ -4.2
2,C18U G25C C43G C99A,≤ -4.2
3,A19G A30C G74A U78A C87A G136A,≤ -4.2
4,A19G A23U G50A G71A A73G G94A,≤ -4.2
5,C18U G50C C72A A91U G128U,≤ -4.2
6,A19G A122C G136C A142C,-3.74
7,A19U G83A,-0.555
8,A19C A39G U61G A64G U90G A97U U134A,≤ -4.2
9,A19U G59A C85G G86A U101C,≤ -4.2
10,C18U C85A U144G,0.299
11,A19G G74A G88C C131G G133A,≤ -4.2
12,A19G C116G U148G A150G,≤ -4.2
13,A19C A24C U82A C116A C118G,≤ -4.2
14,A19C A23U G46U U55G G74C,≤ -4.2
15,A19U A22U C35U C75U C93G U146G,≤ -4.2
16,A19G A29C G68C U78A U90C A98G A121G,≤ -4.2
17,A19U C57G C96G C116G,-0.687
18,A19C C57U C72G C125G U135C G141A,≤ -4.2
19,A19G G58C G59C,0.18
20,C18U C38U A40G U55A C76A C87U C95U,≤ -4.2
